The full ranking holds about 4,500 sequences; the median of “median log2 fold change of GCK-ALFA target abundance (FLAG IP / Myc IP barcode read proportion)” is about 0.078, and the lowest 2% start at about -0.6. Some of the results follow.
B1: GBRAP_18_5405 (protein)
chain: SSALFEEAWAALSEEVQDFVAEVAGDALSSEDREERIDILVDGLVELAKRHSPEEVLNALLLLLLSVTSTLEEKREVAERVIERVPELRPQAEEALRLTE
B2: GBRAP_128_3329 (protein)
chain: MNEEKIEEAKKLAEEMKKADVEEVKKLTAKLVALMGTASEEEREIIAEIFEEALKELTAEKLDAVADTLREQRPTLDPETQLYVDDLEVEALNEAEEKEE
B3: GBRAP_186_5397 (protein)
chain: ANDEEEHDKLLEELEKKNDIVIIVELDPKDTLEKKKKIMENDVEAMEALAKETGKKVAVVFSVTADKETLEELKKYAEELNKKAKAKSGVEVKLIGTETP
B4: GBRAP_184_5260 (protein)
chain: TVLEEVIEAENVEELRAKLAAVAARALASGADVLLHLEVEELTDEMIDALFDQIAALKAAGYTGRITVGIDADMTEEQIDYAIEKADAAGVNLTVAIPEE
B5: GBRAP_42_5733 (protein)
chain: MTAVTLEVVSHTREEAERNLAEAKKITEEYLAKGEVIVTYEIAAPEEAADLAAEAEARAKEIRATADKESEWVVVAGPGEDLREAAEIAVDIAKMELEEE
B6: GBRAP_184_5198 (protein)
chain: KVTEVELEAENLEEVKKKMEELREIAKREKADLVVILKLKEVTKEMVETIMSTMKEIKEEGLSPNITLEIVGKMSEENIDLAIKLADEAGVNLVLALDEE
B7: GBRAP_52_6158 (protein)
chain: AAARAEALADAILAAVRAGDEARLRALLEEAARTLSDEELSALLDHIAAAVAGLSPADAEAVVDAAIRFEDLAVAAGHDEELLSYQLARVAAAAYAQLQA
B8: GBRAP_43_5790 (protein)
chain: MKEIVEGALDFARTALETPEITDETKARIVVDAIDFAADEGVLTKEQLRELLELLERSVSLETALEALERILKRLKELGAPQELLDTVEEALERVRKELA

The binders below were run against GABARAP, O95166 (assay: median log2 fold change of GCK-ALFA target abundance (FLAG IP / Myc IP barcode read proportion) (log2 ratio); each designed protein is fused to an ALFA-tag nanobody in HEK293 cells to bring the named protein to FLAG-tagged glucokinase (GCK); Myc marks an untargeted standard; higher = target protein stabilised (more abundant)). Details: target protein: 3xFLAG-MCP-GCK-ALFA reporter; HEK293 landing pad (RPLP).
Chain of GABARAP, O95166 (O95166 whole entry, the tested form may be a part): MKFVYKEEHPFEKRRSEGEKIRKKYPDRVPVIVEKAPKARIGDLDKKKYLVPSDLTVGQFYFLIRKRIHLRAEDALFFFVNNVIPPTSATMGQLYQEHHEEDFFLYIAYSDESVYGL
Procedure, shortened: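 An ALFA-nanobody-fused binder library was recombined into HEK293 landing-pad cells and induced with 2 μg mL^−1 doxycycline. Cells were transfected with a plasmid expressing a FLAG-tagged target and a Myc-tagged standard. After 48 h, lysates underwent anti-FLAG and anti-Myc immunoprecipitation, and circular RNA barcodes were reverse transcribed, amplified and sequenced. Target abundance is the per-binder median log2 ratio of FLAG to Myc barcode read proportions. Barcodes needed ≥10^−7 proportion in both replicates, binders ≥3 barcodes per replicate, and a 10^−6 pseudocount was added; the two replicates were pooled.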

Row | Binder | median log2 fold change
1 | B1 | -0.298
2 | B2 | -0.0881
3 | B3 | 0.165
4 | B4 | 0.0342
5 | B5 | 0.222
6 | B6 | 0.0431
7 | B7 | -0.0469
8 | B8 | -0.0375

— the supplement of paper PMC12632987
